In all, about 3,200 compounds went through this assay and about 110 (3.4%) showed an effect of 50% or more. The list shows a part of the results.

We go through 45 molecules from publication PMC11995724, “Antibiotic target discovery by integrated phenotypic and activity-based profiling of electrophilic fragments” (Cell chemical biology, 2025).

The subject of the assay is T1, V. cholerae SAD30.
T1 construct: SAD30
Also noted: species or system S. aureus MSSA476 (TSB) or V. cholerae SAD30 (LB); 384-well bacterial growth screen at 25 uM, OD600 relative to DMSO control. To be noted: relative growth, OD600, LB; 25 µM; inhibitor.
`C=CC(=O)NCC1CCN(Cc2ccccc2)CC1C` (stereo not drawn) [3-G20, N-[(1-benzyl-3-methylpiperidin-4-yl)methyl]prop-2-enamide]: the “% of control remaining” value was found to be 87.8552%.
Then `C=CC(=O)Nc1cnn(CCF)c1` [1-E05, N-[1-(2-fluoroethyl)-1H-pyrazol-4-yl]prop-2-enamide], with 98.0568%; and `CCC(=O)Nc1cccc(NC(=O)CCl)c1C` [5-K04, N-[3-(2-chloroacetamido)-2-methylphenyl]propanamide], with 100.872%; and `C=CC(=O)N1CCN(c2nccn(C)c2=O)CC1` [3-P20, 1-methyl-3-[4-(prop-2-enoyl)piperazin-1-yl]-1,2-dihydropyrazin-2-one], with 112.38%.
The figure for `C=CC(=O)Nc1ccc(C(=O)N2CCC(S(=O)(=O)NC)C2)cc1` (stereo not drawn) [3-O08, N-{4-[3-(methylsulfamoyl)pyrrolidine-1-carbonyl]phenyl}prop-2-enamide] is 98.9708%; for `C=CC(=O)N1CCOC2(CCCCCC2)C1` [1-L08, 1-{1-oxa-4-azaspiro[5.6]dodecan-4-yl}prop-2-en-1-one] it is 106.968%; for `C=CC(=O)Nc1cccc(-c2nc(COC)no2)c1C` [1-J08, N-{3-[3-(methoxymethyl)-1,2,4-oxadiazol-5-yl]-2-methylphenyl}prop-2-enamide] it is 104.514%.
Regarding `COc1cccc2cc(C=C(C#N)C(=O)Nc3ccc(C)cc3)oc12` [9-A17, 2-cyano-3-(7-methoxy-1-benzofuran-2-yl)-N-(4-methylphenyl)prop-2-enamide], the “% of control remaining” value was determined as 83.5486%.
On to `CC(Cl)C(=O)Nc1ccc(F)cc1` (stereo not drawn) [6-K15, 2-chloro-N-(4-fluorophenyl)propanamide], for which the “% of control remaining” value came out at 87.9704%.
The figure for `Cc1cc(C)n(CCCNC(=O)C(C)Cl)n1` (stereo not drawn) [7-O19, 2-chloro-N-[3-(3,5-dimethyl-1H-pyrazol-1-yl)propyl]propanamide] is 79.1674%.
With `COc1cccc(NC(=O)C(C#N)=Cc2cccc(O)c2)c1` [8-P03, 2-cyano-3-(3-hydroxyphenyl)-N-(3-methoxyphenyl)prop-2-enamide], the “% of control remaining” value came to 82.4609%.
Consider `CC1=C(C#N)C(=O)N(C)C(=O)C1=Cc1ccc(-c2ccccc2Cl)o1` [9-K18, 5-{[5-(2-chlorophenyl)furan-2-yl]methylidene}-1,4-dimethyl-2,6-dioxo-1,2,5,6-tetrahydropyridine-3-carbonitrile], for which the “% of control remaining” value amounted to 79.0619%.
Consider `Cc1ccc(NC(=O)C(C#N)=Cc2cccc(C(F)(F)F)c2)c(C)c1` [8-H11, 2-cyano-N-(2,4-dimethylphenyl)-3-[3-(trifluoromethyl)phenyl]prop-2-enamide], for which the “% of control remaining” value is 67.6411%.
Regarding `CC(NC(=O)CCl)c1ccc(-c2ccccc2)cc1` (stereo not drawn) [5-A17, N-(1-{[1,1'-biphenyl]-4-yl}ethyl)-2-chloroacetamide], the “% of control remaining” value worked out at 96.3329%.
The figure for `N#CC(=Cc1cnc2ccccn12)C(=O)NCc1ccccc1` [9-P18, N-benzyl-2-cyano-3-{imidazo[1,2-a]pyridin-3-yl}prop-2-enamide] is 86.6757%; for `C=CC(=O)Nc1cccc(-c2ccon2)c1` [3-L04, N-[3-(1,2-oxazol-3-yl)phenyl]prop-2-enamide] it is 96.5006%.
`N#CC(=Cc1ccc(OC(F)F)cc1)C(=O)N1CCCC1` [8-L22, 3-[4-(difluoromethoxy)phenyl]-2-(pyrrolidine-1-carbonyl)prop-2-enenitrile]: the “% of control remaining” value is recorded as 77.0224%.
The figure for `CC(Cl)C(=O)c1ccc(C(C)(C)C)cc1` (stereo not drawn) [10-D14, 1-(4-tert-butylphenyl)-2-chloropropan-1-one] is 99.5909%; for `C=CC(=O)N1CCC(C(=O)NCCC2CCS(=O)(=O)C2)CC1` (stereo not drawn) [2-H05, N-[2-(1,1-dioxo-1lambda6-thiolan-3-yl)ethyl]-1-(prop-2-enoyl)piperidine-4-carboxamide] it is 92.975%; for `COc1ccc2cc(CN(C)C(=O)CCl)ccc2c1` [4-A19, 2-chloro-N-[(6-methoxynaphthalen-2-yl)methyl]-N-methylacetamide] it is 94.8889%.
Then `CCCCNC(=O)C(C#N)=Cc1ccc(C)s1` [9-J06, N-butyl-2-cyano-3-(5-methylthiophen-2-yl)prop-2-enamide], with 70.0884%.
Then `C=CC(=O)N1CCC(C(=O)NC2CCCc3nc(C)ncc32)CC1` (stereo not drawn) [3-I17, N-(2-methyl-5,6,7,8-tetrahydroquinazolin-5-yl)-1-(prop-2-enoyl)piperidine-4-carboxamide], with 88.9138%.
Consider `C=CC(=O)NC(C(N)=O)c1ccccc1F` (stereo not drawn) [2-H19, N-[carbamoyl(2-fluorophenyl)methyl]prop-2-enamide], for which the “% of control remaining” value stood at 94.519%.
The figure for `C=CC(=O)N(C)CC(=O)NC1CCC(N2CCCCC2=O)CC1` (stereo not drawn) [3-A06, N-methyl-N-({[4-(2-oxopiperidin-1-yl)cyclohexyl]carbamoyl}methyl)prop-2-enamide] is 122.084%; for `COc1ccc(C=C(C#N)C(=O)Nc2ccccc2C)cc1O` [8-P15, 2-cyano-3-(3-hydroxy-4-methoxyphenyl)-N-(2-methylphenyl)prop-2-enamide] it is 82.3249%.
For the molecule `C=CC(=O)N(Cc1ccc2c(c1)CCC2)Cc1c(C)noc1C` [1-L09, N-[(2,3-dihydro-1H-inden-5-yl)methyl]-N-[(3,5-dimethyl-1,2-oxazol-4-yl)methyl]prop-2-enamide], the “% of control remaining” value was 74.8879%.
Then `COc1cc(NC(=O)CCl)c(C)cc1[N+](=O)[O-]` [4-M09, 2-chloro-N-(5-methoxy-2-methyl-4-nitrophenyl)acetamide], with 98.512%; and `CCc1ccc(NC(=O)C(C#N)=Cc2ccn(-c3ccccc3)n2)cc1` [8-K22, 2-cyano-N-(4-ethylphenyl)-3-(1-phenyl-1H-pyrazol-3-yl)prop-2-enamide], with 84.7723%; and `CCCCNC(=O)C(C#N)=Cc1cccc2ccccc12` [8-N13, N-butyl-2-cyano-3-(naphthalen-1-yl)prop-2-enamide], with 68.5928%.
Regarding `N#CC(=Cc1cccc2c1OCO2)C(=O)Nc1cccc2ccccc12` [8-K12, 3-(1,3-dioxaindan-4-yl)-2-cyano-N-(naphthalen-1-yl)prop-2-enamide], the “% of control remaining” value was 70.3603%.
The figure for `O=C(CCl)c1ccc2c(c1)-c1ccccc1C2` [10-H17, 2-chloro-1-(9H-fluoren-3-yl)ethan-1-one] is 91.4865%.
Then `CC(Cl)C(=O)N1CCc2ccccc21` (stereo not drawn) [5-H04, 2-chloro-1-(2,3-dihydro-1H-indol-1-yl)propan-1-one], with 105.075%.
The figure for `C=CC(=O)N1CCCc2c(OCC(N)=O)cccc21` [3-D22, 2-{[1-(prop-2-enoyl)-1,2,3,4-tetrahydroquinolin-5-yl]oxy}acetamide] is 115.909%; for `O=C(CCl)NCc1ccc(OC(F)(F)F)cc1` [6-G08, 2-chloro-N-{[4-(trifluoromethoxy)phenyl]methyl}acetamide] it is 91.3072%.
As to `C=CC(=O)NC(C)Cc1cccn1C` (stereo not drawn) [3-M22, N-[1-(1-methyl-1H-pyrrol-2-yl)propan-2-yl]prop-2-enamide], the “% of control remaining” value amounted to 102.147%.
The figure for `N#CC(=Cc1ccc(Cl)cc1)C(=O)Nc1ccc2c(c1)OCCO2` [9-E22, 3-(4-chlorophenyl)-2-cyano-N-(2,3-dihydro-1,4-benzodioxin-6-yl)prop-2-enamide] is 93.0659%; for `C=CC(=O)N1CCCn2ncc(C3CC3)c21` [3-M15, 1-{3-cyclopropyl-4H,5H,6H,7H-pyrazolo[1,5-a]pyrimidin-4-yl}prop-2-en-1-one] it is 98.6179%; for `CCN(Cc1ccc(C#N)cc1F)C(=O)CCl` [5-H08, 2-chloro-N-[(4-cyano-2-fluorophenyl)methyl]-N-ethylacetamide] it is 90.953%.
In the case of `Cc1ccc(Cl)c(NC(=O)CCl)c1Cl` [4-D10, 2-chloro-N-(2,6-dichloro-3-methylphenyl)acetamide], the “% of control remaining” value amounted to 87.2978%.
Then `CC(NC(=O)C(C#N)=Cc1ccco1)c1cccnc1` (stereo not drawn) [9-K03, 2-cyano-3-(furan-2-yl)-N-[1-(pyridin-3-yl)ethyl]prop-2-enamide], with 97.1448%.
Take `CC(Cl)C(=O)NC1CCC(C)(C)c2ccccc21` (stereo not drawn) [6-H21, 2-chloro-N-(4,4-dimethyl-1,2,3,4-tetrahydronaphthalen-1-yl)propanamide]: the “% of control remaining” value was 85.2403%.
The figure for `O=C(c1ccccc1)c1cc(Cl)ccc1N1C(=O)C=CC1=O` [10-M16, 1-(2-benzoyl-4-chlorophenyl)-2,5-dihydro-1H-pyrrole-2,5-dione] is 57.9778%; for `C=CC(=O)N1CCC(C(=O)Oc2ccc(NC(C)=O)cc2)CC1` [3-M16, 4-acetamidophenyl 1-(prop-2-enoyl)piperidine-4-carboxylate] it is 96.1478%; for `C=CC(=O)N1CCN(Cc2cc(=O)n3ccsc3n2)CC1` [3-F22, 7-{[4-(prop-2-enoyl)piperazin-1-yl]methyl}-5H-[1,3]thiazolo[3,2-a]pyrimidin-5-one] it is 108.675%.
For `COc1ccc([N+](=O)[O-])cc1N1C(=O)C=CC1=O` [10-P13, 1-(2-methoxy-5-nitrophenyl)-2,5-dihydro-1H-pyrrole-2,5-dione], the “% of control remaining” value amounted to 32.7294%.
